Measurements: the supplement of paper PMC7125110
± gives the standard error. Variants at the background level are over-represented here.

B1: glmS ribozyme (parent)
chain: AUAAAAGCGCCAGAACUACAGAAAUGUAGUUGACGAGGAGGAGGUUUAUCGAAUUUUCGGCGGAUGCCUCCAAA

Variants of: B1
Assay: self-cleavage kobs at 10000 uM GlcN6P; higher = faster cleavage; RNA array
Conditions: with glucosamine-6-phosphate
In short: (§1)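 Using a hybridised Cy3 probe at 37 °C, barcoded ribozyme variants transcribed in situ by E. coli RNA polymerase on sequenced MiSeq chips were monitored across tiles imaged over ~14 h. The flow contained glucosamine-6-phosphate from 40 μM to 10 mM in HEPES/KCl/Mg(OAc)2 buffer. Signals were normalised to baseline and to non-cleaving reference variants before per-tile medians were fit to one- or two-exponential decays to yield kobs. Weighted Michaelis–Menten fits across concentrations gave kcat and KM.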

self-cleavage kobs at 10000 uM GlcN6P, 0.000315 ± 5.9e-05 s⁻¹:
U30G U45A C71G

self-cleavage kobs at 10000 uM GlcN6P, 0.00423 ± 0.0011 s⁻¹:
C19U C68U

self-cleavage kobs at 10000 uM GlcN6P, 4.15e-05 ± 1.7e-05 s⁻¹:
A12G G13U U56G C61U C68G C70A

self-cleavage kobs at 10000 uM GlcN6P, 5.14e-05 ± 2e-05 s⁻¹:
G29A A64G C67G

self-cleavage kobs at 10000 uM GlcN6P, 6.95e-05 ± 8.6e-06 s⁻¹:
C16U A48G

self-cleavage kobs at 10000 uM GlcN6P, 0.000205 ± 2.2e-05 s⁻¹:
A12G A15C

self-cleavage kobs at 10000 uM GlcN6P, 0.000112 ± 2.5e-05 s⁻¹:
C11U A15G C58G C68U

self-cleavage kobs at 10000 uM GlcN6P, 0.0008 ± 0.00013 s⁻¹:
A12U U31G U55C U65A

self-cleavage kobs at 10000 uM GlcN6P, < 1e-05 s⁻¹:
G7A C10U G29C A36C A52U
C8U U45G C50U U65C
G13C G38A A42U C61U C67G
U31C A33U G62A
C10A C34G U49C C50U
G7A G32C G37A
G29U U55G G60C
A6G G59C G62A
G32U U46G G62U C70G
A14C U30G A33G G37A C68G
G13C C61G
A36C G60U
G43A U46A U47A A52U C71A
A14U A15C G51U
A12C G38A A42G C70U
G7U G29A G44C U47G G66A
G41A G60A C70G
C10G G13U A15G
U2C C10U A53U U56A C68U
C10A G13U C67U
U31A A36C
C8G G9U G66C C68G
G35A U47A
C11G C16G G29U G38C A39U U49A C67U U69G
G9A A15U U31C A42U G51A U56C
G9U A52U C67U
C8G A48U C67G
C8G G41A G63U C67G
G7U G37A G40C
C8G C10G C70G
U30A U54A C61G G63U
A6C G63A U65G
C10U A15C G37A A48U
A15U A33C G37A U65C
A12U U49C U56G
C11A C34G G62U C68G
A15U C34A A39C U54A G59C
A6G A42C U54A
A6G U46C U55C C70G
C16A G35C A64C

self-cleavage kobs at 10000 uM GlcN6P, 3.08e-05 ± 1.4e-05 s⁻¹:
A14C U57A C67A

self-cleavage kobs at 10000 uM GlcN6P, 7.25e-05 ± 1.8e-05 s⁻¹:
U54G U57A C67G

self-cleavage kobs at 10000 uM GlcN6P, 7.67e-05 ± 2.5e-05 s⁻¹:
G7U A15U C50G A53U U55G G62U

Variants of: B1
Assay: self-cleavage kobs at 2500 uM GlcN6P; higher = faster cleavage; RNA array
Conditions: with glucosamine-6-phosphate
In short: as §1

self-cleavage kobs at 2500 uM GlcN6P, 0.00299 ± 0.00059 s⁻¹:
A42U U56A U69G

self-cleavage kobs at 2500 uM GlcN6P, 0.00171 ± 0.00054 s⁻¹:
U45G U56G A64G

self-cleavage kobs at 2500 uM GlcN6P, 2.92e-05 ± 1.1e-05 s⁻¹:
U30C C58A

self-cleavage kobs at 2500 uM GlcN6P, < 1e-05 s⁻¹:
C34A G35U G59U
C8U G38A C70A
G32A A36U A42C C71G
A15G A33U G37C
C11A G21U A39C U46A U57C
A12G G32U U45G G59U
G41U U56A C61U G66C
A39G G44A G60U
G32A A36U A64G
C10U G35C G38A A52C G62U
G9U A42C G62C C67G
C8G A15G U49A G59C U69A
C10A C34G U49C C50U
A33G G35A G44U G59C C70U
C11G U31C A33G C61U
A39C G41A C70G
A36C G60U
C34A A36C G37U G51U
A52G U55C G62A
U30C G40U G43A C68A C70A
C10G A14U G35U G60C
U45C A48C A64U
A15C A36G G44U
G43A U46A U47A A52U C71A
C10U A15U A64U
C8G A15U C58U
A33U G59U G60C C61G
G40A U45C G63U
G9U U30C A33G A53G U56G
A33U G41U G66U C67G
A12C A15C A64C
G38C U57A C71A
G9U C10G G66C
G41A G60A C70G
C10U G32C G38U
A52U U55A A64U
A33U U45G C70U C71U
C10U G29U A52U
C10G C19A A39U U69C
A36G G59C C61G
G9C G37U G40C U45A
C8U G29C U30G G37A U47A G63U C70U
G29A G32U A33C
C34U G41A C71U
A33C C50U U56C
G13A G40C G60A U65A
C10G G13U G60A
A12C A48U A53C G63A C68A
C34U C50A C58G G62C
A36U G41U C71A
A14C C58A G63A
U30G G60A G62U A64U
C34U G38U A42U G63U
G35A U47A
A12G C16U A39C U57G
U54C G60C C68G
A14C G21U G26U A36C
C8G C10A G43U U55A
G32U G38A U47A U65C
A12U U47G G62C
A42G C61A C70A
C8A A33C G63A
C8G C10G A39C
C8A U30A U57G G59U G62U
A14C A33G G35C G38C G44A A48U C50U
A15C A33G A36C A39C
U45G A48C C61G C68A
A12C A39C G51U U55A
A14G A15G G29C A42C
G35C G51C G60A C67U
C8G U46A C50U
U45C C58U G59C
U31C A48G G63C C67U
C11G A14C G60A
C8G C10G C70G
C16G U55G G62A
A42U U47G A52G A64G
A15C G32U G38C G59U
C10U A15C G37A A48U
U31G A52C C58G
U46G G59C C68U C70A
C34U A53C G66U
G43U U49G C61G
G44U G60U C71A
C8A A33U G38C U49A
U31C G38A G40A
C8G G9U A14U A15U A64G C70U
C34G G38A G41C U57C C70A C71G
C10A G44C A48C
U31C G43U A53G C61U C67A
C11A U46C G60U C71U
G32A G37U C71U
G35U G37A G60U
G38U A48U C61A
U46A A48U U49A
A39C C50U G59C
G9U U31A G37A
U31C G35A C71U
C10U U47C C71A
A33C G40U G44A
A14C A42G G43U C70A
C8U C10U G29C U49A
G32U U47C G59U
A14G A36G C58G

self-cleavage kobs at 2500 uM GlcN6P, 5.99e-05 ± 2.5e-05 s⁻¹:
C11A C16U A53U

self-cleavage kobs at 2500 uM GlcN6P, 6.83e-05 ± 2.4e-05 s⁻¹:
C11U A14C C16A G38U G40A C50G

self-cleavage kobs at 2500 uM GlcN6P, 3.13e-05 ± 1.2e-05 s⁻¹:
A15U G29C G40U

self-cleavage kobs at 2500 uM GlcN6P, 7.42e-05 ± 2.5e-05 s⁻¹:
U54G U57A C67G

self-cleavage kobs at 2500 uM GlcN6P, 0.000173 ± 4.3e-05 s⁻¹:
A33C A53U U54G

self-cleavage kobs at 2500 uM GlcN6P, 4.29e-05 ± 1.9e-05 s⁻¹:
A15U U45A U57C

self-cleavage kobs at 2500 uM GlcN6P, 0.000257 ± 8e-05 s⁻¹:
C50G A52C U69C C70A

self-cleavage kobs at 2500 uM GlcN6P, 0.00338 ± 0.0011 s⁻¹:
A12C U54G C71U

self-cleavage kobs at 2500 uM GlcN6P, 0.0167 ± 0.0049 s⁻¹:
A12U G44U C67U

self-cleavage kobs at 2500 uM GlcN6P, 7.79e-05 ± 1e-05 s⁻¹:
A12G A15C

self-cleavage kobs at 2500 uM GlcN6P, 5.48e-05 ± 2.6e-05 s⁻¹:
C11U G35U C67A C70A

self-cleavage kobs at 2500 uM GlcN6P, 0.000176 ± 4.5e-05 s⁻¹:
A39C G44C C67A

self-cleavage kobs at 2500 uM GlcN6P, 8.33e-05 ± 2.5e-05 s⁻¹:
U45A A52U C67A

self-cleavage kobs at 2500 uM GlcN6P, 6.63e-05 ± 1.1e-05 s⁻¹:
C16U A48G

self-cleavage kobs at 2500 uM GlcN6P, 0.000103 ± 3.5e-05 s⁻¹:
G32A C58U C68G
